{"source": "paper PMC4336329", "about": "(PLoS ONE, 2015)", "note": "The whole screen tested about 310,000 compounds, of which about 2,200 (0.71%) showed an effect of 50% or more. The effect is printed as a negative number. The list shows a part of the results.", "data": [{"target": "human ether-à-go-go-related gene (hERG) potassium channel (human, UniProt Q12809)", "sequence (Q12809 whole entry, looked up)": "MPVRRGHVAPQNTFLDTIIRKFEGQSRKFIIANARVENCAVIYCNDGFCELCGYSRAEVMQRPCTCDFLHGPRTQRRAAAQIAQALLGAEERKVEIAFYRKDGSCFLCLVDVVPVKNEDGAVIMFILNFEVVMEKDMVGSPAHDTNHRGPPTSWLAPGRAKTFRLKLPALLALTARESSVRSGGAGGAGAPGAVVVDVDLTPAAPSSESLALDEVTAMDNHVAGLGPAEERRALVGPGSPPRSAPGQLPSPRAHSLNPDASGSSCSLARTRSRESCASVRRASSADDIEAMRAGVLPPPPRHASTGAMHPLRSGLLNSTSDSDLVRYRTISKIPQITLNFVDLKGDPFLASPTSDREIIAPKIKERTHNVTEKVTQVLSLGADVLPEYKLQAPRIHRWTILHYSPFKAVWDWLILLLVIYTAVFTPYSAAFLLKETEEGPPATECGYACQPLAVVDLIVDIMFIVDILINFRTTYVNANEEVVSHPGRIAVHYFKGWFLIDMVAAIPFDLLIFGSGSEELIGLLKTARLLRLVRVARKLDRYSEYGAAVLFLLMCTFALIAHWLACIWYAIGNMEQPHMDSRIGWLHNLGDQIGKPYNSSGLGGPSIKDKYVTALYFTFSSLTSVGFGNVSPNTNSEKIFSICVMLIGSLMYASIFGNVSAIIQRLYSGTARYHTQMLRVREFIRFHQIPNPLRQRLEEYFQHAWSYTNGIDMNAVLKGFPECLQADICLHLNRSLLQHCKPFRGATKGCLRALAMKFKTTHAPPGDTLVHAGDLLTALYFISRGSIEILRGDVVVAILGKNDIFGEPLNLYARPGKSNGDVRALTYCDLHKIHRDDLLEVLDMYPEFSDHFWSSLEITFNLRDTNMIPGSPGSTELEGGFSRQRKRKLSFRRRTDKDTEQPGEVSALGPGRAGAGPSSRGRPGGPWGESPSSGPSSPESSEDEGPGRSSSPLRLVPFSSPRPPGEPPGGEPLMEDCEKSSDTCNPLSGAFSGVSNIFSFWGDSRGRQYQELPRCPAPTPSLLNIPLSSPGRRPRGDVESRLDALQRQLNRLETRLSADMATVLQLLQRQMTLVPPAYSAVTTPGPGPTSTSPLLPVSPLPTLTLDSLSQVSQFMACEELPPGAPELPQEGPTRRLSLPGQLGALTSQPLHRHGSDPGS", "assay": "primary screen, population patch clamp on CHO cells stably expressing hERG", "units": {"hERG current change (%, negative = inhibition) at 1uM": "%"}, "values": [{"smiles": "CNC(=O)c1ccc(N(Cc2ccccc2C)S(C)(=O)=O)cc1", "hERG current change (%, negative = inhibition) at 1uM": 8.84}, {"smiles": "O=C(NNC(=S)NCc1ccccc1)c1ccc2c(c1)OCO2", "hERG current change (%, negative = inhibition) at 1uM": 6.36}, {"smiles": "Fc1cccc2sc(Nc3nc4cc5c(cc4s3)OCCO5)nc12", "hERG current change (%, negative = inhibition) at 1uM": 19.5}, {"smiles": "CCn1c(SCC(=O)N2CCCC2=O)nnc1-c1cccs1", "hERG current change (%, negative = inhibition) at 1uM": 5.99}, {"smiles": "S=c1[nH]nc(Cc2cccc3ccccc23)n1-c1ccccc1", "hERG current change (%, negative = inhibition) at 1uM": 9.48}, {"smiles": "Brc1ccc2ncnc(Nc3cccc4ccccc34)c2c1", "hERG current change (%, negative = inhibition) at 1uM": -1.67}, {"smiles": "N#Cc1c(-c2ccccc2)nc2n(-c3ccccc3)nc(C(=O)Nc3ccccc3)n2c1=O", "hERG current change (%, negative = inhibition) at 1uM": 21.1}, {"smiles": "CCCCc1ccc(S(=O)(=O)N2CCN(C(=O)c3ccco3)CC2)cc1", "hERG current change (%, negative = inhibition) at 1uM": 2.16}, {"smiles": "Cc1ccc(C(C(=O)NC2CCCC2)N(Cc2cccs2)C(=O)c2csnn2)o1", "note": "(stereo not drawn)", "hERG current change (%, negative = inhibition) at 1uM": 3.01}, {"smiles": "CCc1ccc(Nc2n[n+](-c3ccccc3)c(-c3ccc(SC)cc3)s2)cc1.[Cl-]", "hERG current change (%, negative = inhibition) at 1uM": 3.59}, {"smiles": "COc1ccc(Cc2cnc(N)s2)cc1", "hERG current change (%, negative = inhibition) at 1uM": 14.3}, {"smiles": "CO/N=C(/CNC(=O)c1ccccc1Cl)c1ccc(Cl)cc1", "hERG current change (%, negative = inhibition) at 1uM": 0.0343}, {"smiles": "O=[N+]([O-])c1ccc(COc2ccc(-c3[nH]ncc3-c3ccccc3)c(O)c2)cc1", "hERG current change (%, negative = inhibition) at 1uM": 4.58}, {"smiles": "CC(=O)N1CCc2cc(S(=O)(=O)N3CCCCC3C)ccc21", "note": "(stereo not drawn)", "hERG current change (%, negative = inhibition) at 1uM": 17.6}, {"smiles": "COCCC(=O)Nc1ccc2c(c1)CN(C(=O)CSC)CC2", "hERG current change (%, negative = inhibition) at 1uM": 8.87}, {"smiles": "Cc1c(C)c2ccc(OCC(=O)N3C[C@H]4C[C@@H](C3)c3cccc(=O)n3C4)c(C)c2oc1=O", "hERG current change (%, negative = inhibition) at 1uM": 10.1}, {"smiles": "O=C(COC(=O)CCc1ccccc1)Nc1cc([N+](=O)[O-])ccc1F", "hERG current change (%, negative = inhibition) at 1uM": 9.65}, {"smiles": "O=C(C1CC(=O)N(c2ccccc2)C1)N1CCC(c2nc3ccccc3[nH]2)CC1", "note": "(stereo not drawn)", "hERG current change (%, negative = inhibition) at 1uM": 18.6}, {"smiles": "COC(=O)C(C)Oc1cc(OC(C)C(=O)OC)c2c(C)c(Cl)c(=O)oc2c1", "note": "(stereo not drawn)", "hERG current change (%, negative = inhibition) at 1uM": 8.01}, {"smiles": "COc1cc(C(=O)NCc2ccncc2)cc(OC)c1OC", "hERG current change (%, negative = inhibition) at 1uM": 13}, {"smiles": "O=C(NCc1cccnc1)C1c2ccccc2C(=O)N1C1CCCC1", "note": "(stereo not drawn)", "hERG current change (%, negative = inhibition) at 1uM": 14.7}, {"smiles": "CCOc1ccc(Oc2ccc(S(=O)(=O)N3CCOCC3)cc2NC(=O)C2=COCCO2)cc1", "hERG current change (%, negative = inhibition) at 1uM": 11.6}, {"smiles": "CCCCOC(=O)Nc1ccc(N2CCCCC2)cc1", "hERG current change (%, negative = inhibition) at 1uM": -4.51}, {"smiles": "O=C(NCCCO)c1ccc(CSc2nc3ccccc3[nH]2)cc1", "hERG current change (%, negative = inhibition) at 1uM": 11.1}, {"smiles": "CC1CCCC(C)N1C(=O)Cn1c(SCC(=O)Nc2ccc3c(c2)OCO3)nc2ccccc21", "note": "(stereo not drawn)", "hERG current change (%, negative = inhibition) at 1uM": 4.44}, {"smiles": "COc1ccc(NC(=O)COc2ccc(N(C)S(=O)(=O)c3ccc(Cl)cc3)cc2)cc1OC", "hERG current change (%, negative = inhibition) at 1uM": -0.0686}, {"smiles": "c1ccc(Cn2cc(-c3ccccc3)cn2)cc1", "hERG current change (%, negative = inhibition) at 1uM": 8.29}, {"smiles": "CS(=O)(=O)c1nc(S(=O)(=O)c2ccc(Cl)cc2)c(NCc2ccccn2)s1", "hERG current change (%, negative = inhibition) at 1uM": 11.2}, {"smiles": "COC(=O)c1nn(-c2ccc(OC)cc2)c(=O)cc1Sc1ccc(C)cc1", "hERG current change (%, negative = inhibition) at 1uM": 1.56}, {"smiles": "CC(C)N(Cc1nccn1C)C(=O)CCc1nnc(CCCc2ccccc2)o1", "hERG current change (%, negative = inhibition) at 1uM": 5.13}, {"smiles": "O=C(CN(C(=O)c1ccccc1Cl)C1CCCCC1)Nc1ccc(Cl)c([N+](=O)[O-])c1", "hERG current change (%, negative = inhibition) at 1uM": 9.85}, {"smiles": "CCCCc1c(C)nc2ccc(OC)cc2c1SCCC(=O)O", "hERG current change (%, negative = inhibition) at 1uM": 4.08}, {"smiles": "COc1cccc(NC(=O)N(Cc2cc3cc(C)cc(C)c3[nH]c2=O)CC2COCCO2)c1", "note": "(stereo not drawn)", "hERG current change (%, negative = inhibition) at 1uM": 32.6}, {"smiles": "Cc1ccc(N(CC(=O)NC2CCCC2)C(=O)CNC(=O)c2cccs2)c(C)c1", "hERG current change (%, negative = inhibition) at 1uM": 8.17}, {"smiles": "CN(C)c1nc(N/N=C/c2ccccc2O)nc(Nc2ccc(F)cc2)n1", "hERG current change (%, negative = inhibition) at 1uM": 14}, {"smiles": "CCOc1ccc(-n2c(=O)c3c4c(sc3n(CC(=O)NCc3ccco3)c2=O)CCC4)cc1", "hERG current change (%, negative = inhibition) at 1uM": 6.98}, {"smiles": "O=C(CCc1ccc(O)cc1)N/N=C/c1coc2ccccc2c1=O", "hERG current change (%, negative = inhibition) at 1uM": 12}, {"smiles": "CCN1CCN(CCCOc2ccccc2-c2ccccc2)CC1.O=C(O)C(=O)O", "hERG current change (%, negative = inhibition) at 1uM": -16.6}, {"smiles": "COc1ccccc1NC(=S)NNC(=O)c1nn(C)c(C)c1Br", "hERG current change (%, negative = inhibition) at 1uM": 23.1}, {"smiles": "Cc1cc(C(=O)COC(=O)c2ccc(O)cc2O)c(C)n1C(C)C", "hERG current change (%, negative = inhibition) at 1uM": 7.29}, {"smiles": "CC(C)C1C(C#N)=C(N)Oc2n[nH]c(C(C)(C)C)c21", "note": "(stereo not drawn)", "hERG current change (%, negative = inhibition) at 1uM": -6.48}, {"smiles": "CS(=O)(=O)n1nc(-c2cccnc2)nc1NCc1ccccc1", "hERG current change (%, negative = inhibition) at 1uM": 20}, {"smiles": "COc1ccc(N2CCN(C(=O)C3CCC(Cn4c(=S)[nH]c5ccccc5c4=O)CC3)CC2)cc1", "note": "(stereo not drawn)", "hERG current change (%, negative = inhibition) at 1uM": -14.7}, {"smiles": "O=C1CC2(CCN(C(=O)c3cccc(Cl)c3)CC2)Oc2ccccc21", "hERG current change (%, negative = inhibition) at 1uM": -46.6}, {"smiles": "COc1ccccc1OCCCOc1ccc(C)cc1Br", "hERG current change (%, negative = inhibition) at 1uM": 7.82}, {"smiles": "CC1(CCC(=O)N2CCCC(N3CCN(c4cccc(C(F)(F)F)c4)CC3)C2)CC1", "note": "(stereo not drawn)", "hERG current change (%, negative = inhibition) at 1uM": 6.53}, {"smiles": "CCNC(=S)N1CCN(CCN=CC2=C(O)CC(c3cccs3)CC2=O)CC1", "note": "(stereo not drawn)", "hERG current change (%, negative = inhibition) at 1uM": -5.42}, {"smiles": "CC1(C)CCCN(C(=O)c2ccc3c(c2NCCO)C(=O)c2ccccc2C3=O)C1", "hERG current change (%, negative = inhibition) at 1uM": -4.49}, {"smiles": "N#CCc1nn2c3c(cnc2c1C#N)C(=O)CCC3", "hERG current change (%, negative = inhibition) at 1uM": 11.7}, {"smiles": "CC(=O)N/C(=C\\c1ccccc1)C(=O)OCC(=O)N(C)C1CCCCC1", "hERG current change (%, negative = inhibition) at 1uM": 12.2}, {"smiles": "COc1ccc(NC(=O)C2CCN(C(=O)[C@@H]3Cc4ccccc4CN3)CC2)cc1", "hERG current change (%, negative = inhibition) at 1uM": 7.63}, {"smiles": "Nc1c(C(=O)Nc2ccccc2)sc2ncc([N+](=O)[O-])cc12", "hERG current change (%, negative = inhibition) at 1uM": 11}, {"smiles": "CC(C)CCN(C(=O)CNC(=O)c1ccco1)C(C(=O)NC1CCCCC1)c1cccnc1", "note": "(stereo not drawn)", "hERG current change (%, negative = inhibition) at 1uM": 9.89}, {"smiles": "COc1cc(NC(=O)CN2C(=O)c3ccccc3Sc3ccc(C(=O)N4CCOCC4)cc32)cc(OC)c1OC", "hERG current change (%, negative = inhibition) at 1uM": 2.5}]}]}
